The labels stand for the following.
T1: UNK ZnF1-3 (human, UniProt Q9C0B0 31-174)
T1 sequence: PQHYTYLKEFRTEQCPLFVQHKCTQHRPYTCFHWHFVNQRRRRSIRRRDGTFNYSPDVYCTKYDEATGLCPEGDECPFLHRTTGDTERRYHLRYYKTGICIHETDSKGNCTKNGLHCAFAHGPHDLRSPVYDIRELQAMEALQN

B1: chr17:87833181:87833182:-_ENSMUSG00000036438_ENSMUST00000040440|perfect_dup|FALSE|FALSE (ssRNA)
RNA: GGGAGUUCUACAGUCCGACGAUCCGGGCUUAGAUAUAGCCAGAGUAAGCCACAUGCAACAUGUUACUUCAUCAAUUUUCUAAAAUAAGGUUUAAGGACAAUGACAGUAAGAUAAGGGAAGAAAACAUGGAGGAAUGAAGUCCUCAACAGAGGAUUGAGCAUCA
B2: 151797923_151800233_626_CDS_ENSG00000178234_ENST00000430044|human|control|control (ssRNA)
RNA: GGGAGUUCUACAGUCCGACGAUCAGCUGGCAGGUCAGGUGGGUAGAACUUUUCUUUACAUGCUGCAUUCCUUGUGUCUGGCACAUCUCUGUGGUAGCCCAAGCGGUCACUGAUAAGCAUAUUAAAAGCAUGUUUCUGAUAGCCCAACAGAGGAUUGAGCAUCA
B3: chr1:94914716:94914717:-_ENSMUSG00000014602_ENSMUST00000171796|mus_mus|motif|central (ssRNA)
RNA: GGGAGUUCUACAGUCCGACGAUCAAACAGAACACAGUCUUAUAGUUAAUGUCUCAGAGGACUGUUUCAACGCCACGGACGGAUGUAUAUUAAUUAUAAGUCUGUCUAUGCUUAAAAAAAUAUUAGAACAGCGGCAAUACCCUGCAACAGAGGAUUGAGCAUCA
B4: 39051560_39051680_2368_3pUTR_ENSMUSG00000026753_ENSMUST00000028087|mouse|control|control (ssRNA)
RNA: GGGAGUUCUACAGUCCGACGAUCAUGAUAUACUUGUCCUUAUUAAUGGACAAUUAUAUAUCAAGAACUGAUCAUCACAACCCUUUAGAUAGUCAAGUUACAAACACAAAGCUGAAAUAUGGUAUGACAGACCUUCACAAGAGACAACAGAGGAUUGAGCAUCA
B5: chr10:112364898:112364899:-_ENSMUSG00000074748_ENSMUST00000099276|mus_hu|FALSE|FALSE (ssRNA)
RNA: GGGAGUUCUACAGUCCGACGAUCUUUUUCUUGGAUUUCCCAAACUGAAACUGUUAGUAUCCAGAUCUUGCACCUGACAUUUACUUGUCUCAGAGAAGCCCAUAACAGAGGUUCAGAUAUCAAAGGAGCAGUCCCACUGCAGGCCAACAGAGGAUUGAGCAUCA
B6: chr17:61910164:61910165:-_ENSG00000108604_ENST00000448276|hu_hu|FALSE|FALSE (ssRNA)
RNA: GGGAGUUCUACAGUCCGACGAUCAAGUAUAAGGCUUUGGGGACCAAGCAACAAGGAAUCCUAUCACUACAUUUAUAAGACUAAAGCUGGAGAGUAGAGGGUGACAGCAGACACUCCUCACCCCAGCCUACGUGUCUGCGGCCCCAACAGAGGAUUGAGCAUCA
B7: chr7:141438946:141438947:+_ENSG00000106028_ENST00000265304|hu_mus|hu_hu_hu_mus_True|78_108 (ssRNA)
RNA: GGGAGUUCUACAGUCCGACGAUCGACUACCUGUAAUUAACACAGGUCUUCGAAACAUUCUAUUUUCUUUUCUUACAACCUAAUCUUUAGGCUUUUCCUAAAGGAAAGAAAGAAAAGAGAAAAAUGAUAAAUCAAGAAACUACACAACAGAGGAUUGAGCAUCA
B8: chr15:78834838:78834839:+_ENSG00000041357_ENST00000044462|hu_hu|FALSE|FALSE (ssRNA)
RNA: GGGAGUUCUACAGUCCGACGAUCAUCAAGAAGCUUGUGGAUGUUGCGUCUCUCUGCUGCAAGCAAAACACCAUCAUUUGCUAAAAUUCCCAAACAGGUGCCUGCAUGUCCAAUAGCUUCCAUGGCAUAUUCAACUUGGUAUAACAACAGAGGAUUGAGCAUCA
B9: chr6:36759938:36759939:-_ENSMUSG00000029838_ENSMUST00000101534|mus_mus|FALSE|FALSE (ssRNA)
RNA: GGGAGUUCUACAGUCCGACGAUCGGACGACAUUUUUUGGCUUGCAGAGGUCCUCGCUGACUAGCUGGCUGCCUUUGUUGCAAAGUGCGGGCGAGGUUUCUGCAGACUCCAGGUAUCGCUGGCUGAUGCUCCUGCCUGGGCGGCCAACAGAGGAUUGAGCAUCA
B10: chr4:25749455:25749456:-_ENSG00000091490_ENST00000264868|hu_hu|hu_hu_hu_mus_False|38_88 (ssRNA)
RNA: GGGAGUUCUACAGUCCGACGAUCGCACUAUGACCUCUAGAAAAAUCAUUCAAGGAGAAAAAUGUAAACCAAUGUACAAUGUUAUCGCCUUCCCUGUAUUUCCAGGCUUUGUCUCAAGGCUCCUUCUAGCUGCUGGAUUUGGGACAACAGAGGAUUGAGCAUCA
B11: chr5:138700276:138700277:+_ENSG00000120727_ENST00000265192|hu_mus|motif|central (ssRNA)
RNA: GGGAGUUCUACAGUCCGACGAUCUUCCAGCAUUUCUUGGAAACAGCGUUCAAUAAAUUCUUCUUCCCACAACUCCUCUUCGGUUUGUCUGUUGAAUUCCUCUUCAUUUUCCAUCCACAUGUACUCUGCAAAUGGAUUAUCCUCCAACAGAGGAUUGAGCAUCA
B12: chr16:48972413:48972414:-_ENSMUSG00000064061_ENSMUST00000121869|mus_hu|FALSE|FALSE (ssRNA)
RNA: GGGAGUUCUACAGUCCGACGAUCAGGUAAAUCUUCAUCUUCUGUAGGAUCUAUGUCAAACCAAUGGUCAUUUUUGUCUCCAAUUUCUUGUAAGCUUUUAUGAAAUUCUAGCAGUCCUCCAUUAUAUCUCUUUUGAGCACAUCGCAACAGAGGAUUGAGCAUCA
B13: chr10:1038518:1038519:+_ENSG00000107937_ENST00000545048|hu_hu|hu_hu_hu_mus_False|48_68 (ssRNA)
RNA: GGGAGUUCUACAGUCCGACGAUCCAGUCUGUCAUGGUAAUUCUGUUGAGUAAAUUUGACUUUUCUCAUGUAAAAAUGUCGAAUCCGAUGUAUUUGGUAAUGUUUAUGAAUAACCGUUGGAGUCUUUCGUUGAGUCUUGGAUAACAACAGAGGAUUGAGCAUCA
B14: chr14:103803487:103803488:+_ENSG00000100664_ENST00000558506|hu_mus|hu_hu_hu_mus_True|8_78 (ssRNA)
RNA: GGGAGUUCUACAGUCCGACGAUCGAGUUUAUGAUGUGUGUCAAGCAUGCCUCGGUAGCCACAGGCUUUACAAGAAUUACCUAUUGUUUGCUUCUUUGGAUUGACAUGCAGAUCUGUUUCAGGAUUCUCACAUUCAGGACAGAGCAACAGAGGAUUGAGCAUCA

Our source for the binding signal values is paper PMC12136788.

The other results are listed elsewhere or left out.

The assay has as its target T1, UNK ZnF1-3. Nature of the assay: nsRBNS (natural sequence RNA bind-n-seq); RBNS binding buffer (assumed for nsRBNS): 25 mM Tris pH 7.5, 150 mM KCl, 3 mM MgCl2, 0.01% Triton X-100, 500 ug/ml BSA, 20 U/ml SUPERase-In, 4 C; UNK is unkempt and MSI1 is Musashi-1; names of the RNAs are library labels; protein concentration not given here; high values mean tight binding.
B1 yielded a binding signal of 1.76 enrichment R.

With B2, the binding signal amounted to 1.78 enrichment R.

With B3, the binding signal stood at 0.983 enrichment R.

B4: the binding signal is 0.831 enrichment R.

In turn, B5 displayed a binding signal of 1.34 enrichment R.

Turning to B6, the binding signal amounted to 0.894 enrichment R.

As to B7, the binding signal was found to be 0.258 enrichment R.

As to B8, the binding signal worked out at 0.942 enrichment R.

Take B9: the binding signal was determined as 0.657 enrichment R.

As to B10, the binding signal was 0.994 enrichment R.

Molecule B11 displayed a binding signal of 0.534 enrichment R.

B12 yielded a binding signal of 0.467 enrichment R.

As to B13, the binding signal amounted to 0.519 enrichment R.

B14 gave a binding signal of 1.11 enrichment R.
